Source: PubChem BioAssay AID485344 (National Center for Advancing Translational Sciences (NCATS), 2010)
Values joined by “and” are separate entries in the source; they are usually repeats but may differ in a detail not shown here. Identical values can stand only once. Hit rate of the full screen: of about 340,000 compounds, about 6,900 (2%) were called active. No stated cut-off is given here; in the data, active means inhibition above about 30%; inactive means below that, where a call was filed. Only a part is listed here, and it is no random draw. Entries without a call were filed so in the source.

Target: D(2) dopamine receptor (Homo sapiens) (UniProt P14416)
UniProt P14416, sequence (P14416 whole entry, looked up): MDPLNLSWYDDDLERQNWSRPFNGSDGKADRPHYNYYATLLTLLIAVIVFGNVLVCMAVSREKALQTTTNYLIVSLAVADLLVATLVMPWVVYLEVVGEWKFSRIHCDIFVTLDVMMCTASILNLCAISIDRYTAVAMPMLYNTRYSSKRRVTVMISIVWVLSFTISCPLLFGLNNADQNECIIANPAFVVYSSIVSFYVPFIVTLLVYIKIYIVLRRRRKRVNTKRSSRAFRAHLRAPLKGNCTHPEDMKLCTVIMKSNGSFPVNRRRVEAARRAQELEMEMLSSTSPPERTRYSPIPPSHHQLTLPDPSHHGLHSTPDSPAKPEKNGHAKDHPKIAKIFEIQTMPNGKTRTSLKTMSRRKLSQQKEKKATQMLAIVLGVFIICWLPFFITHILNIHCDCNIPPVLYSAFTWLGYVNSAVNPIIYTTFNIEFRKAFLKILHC
Assay: HTS Assay for Allosteric Antagonists of the Human D2 Dopamine Receptor: Primary Screen for Antagonists; further: 0% is about no effect
Settings: HEK293 TREx D2 cells, calcium flux, dopamine EC80; at 10 µM; stronger effect = higher value
Outline: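 Antagonism is scored as inhibition of an EC80 dopamine-evoked calcium signal in a force-coupled, tetracycline-inducible HEK293 T-REx D2 line, with compound present 180 s before agonist.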

SMILES | inhibition
CC(C)c1cnc2c(c1SCC(=O)NCc1ccccc1)c(=O)n(C)c(=O)n2C | 0.32%
CN(Cc1ccccc1)C(=O)CSc1nc2ccccc2n1Cc1ccccc1F | 14.6%
Cc1ccccc1NC(=O)CSc1nc(=O)n(CCN2CCOCC2)c2c1CCC2 | -1.05%
Cc1sc2c(c1C)c(=O)n(-c1cccc(C(F)(F)F)c1)c(=O)n2Cc1ccc(F)cc1 | 6.3%
COC(=O)c1ccc(NC(=O)CCc2c(C)nc3c(c2C)c(=O)n(C)c(=O)n3C)cc1 | 2.38%
COc1ccccc1Cc1nc2ccccc2nc1SCC(=O)Nc1cccc(Cl)c1C | 19.5%
Cc1ccc(-c2nc3ccc(Cl)cn3c2Nc2ccccc2C)s1 | 2.13%
C=CCc1ccccc1OCC(O)CN1CCN(c2ccccc2)CC1 (stereo not given) | 11.1%
COc1ccccc1C(=O)Nc1ccc2c(c1)nc(CN1CCCCC1)n2C | 4.03%
Cc1cc(C)n2nc(SCC(=O)Nc3cccc(C(F)(F)F)c3)nc2n1 | 3.36%
CCn1c(=O)n(CC)c2cc(N3CCCCC3)c(NC(=O)Nc3ccccc3C(F)(F)F)cc21 | 1.91%
COc1ccc(C(CC(=O)NCc2ccccc2)N2Cc3ccccc3C2=O)cc1 (stereo not given) | 9.9%
CCC(Oc1ccc(F)cc1)C(=O)Nc1nc(-c2ccc(F)cc2)ns1 (stereo not given) | -6%
CCc1ccccc1NC(=O)c1cnc2sc(N3CCOCC3)nn2c1=O | 12%
Cn1c(CCC(N)=O)nnc1SCC(=O)Nc1ccccc1C(=O)NC1CC1 | active: 31.4%
CCOC(=O)c1ccc(NC(=O)CC2C(=O)N(c3cccc(OC)c3)C(=O)N2Cc2ccc(OC)cc2)cc1 (stereo not given) | -3.2%
COc1ccc(OCC(O)CNC(=O)Nc2cc(C)cc(C)c2)cc1 (stereo not given) | active: 30.1%
COc1ccccc1N1CCN(C(=O)CCNS(=O)(=O)c2ccc3c(c2)CCN3C(=O)C2CC2)CC1 | 7.07%
COc1ccc(Cl)cc1NC(=O)CSC1=Nc2ccccc2C2=NC(CC(=O)NCc3ccc4c(c3)OCO4)C(=O)N12 (stereo not given) | -18.5%
Cc1ccc(NC(=O)c2cnc(SCC(=O)Nc3cc(C)on3)n(C)c2=O)cc1 | 21.2%
Cc1ccc(CNC(=O)Cn2cc(S(=O)(=O)Cc3ccccc3F)c3ccccc32)cc1 | 4.1%
O=C(Cn1nnc(-c2ccc(Cl)cc2)n1)NCc1ccc(F)cc1 | 2.71%
COc1ccc(OC)c(CNS(=O)(=O)c2c(C(=O)N3CCCCCC3)c(C)n(C)c2C)c1 | 14.2%
O=S(=O)(c1ccc(Br)cc1)c1nc(-c2cccs2)oc1SCc1ccccc1F | 8.46%

SMILES | inhibition
COCCCNC(=O)c1cc(-c2cccnc2)nc2ccc(S(=O)(=O)N3CCC(C)CC3)cc12 | 1.97%
CN1C(=O)C2(c3ccccc31)N(c1cccc(F)c1)C(=O)CS2(=O)=O (stereo not given) | -9.07%
Clc1ccccc1CNc1nc2ccccc2c2nc(-c3cccnc3)nn12 | -2.08%
CCOC(=O)c1cc2c(=O)n3ccccc3nc2n(CC(C)C)c1=NC(=O)c1cc2ccccc2o1 | 10.2%
Cc1ccc(S(=O)(=O)c2cn(Cc3ccc(F)cc3)c3cc(F)c(F)cc3c2=O)cc1 | -6.34%
O=C(CN1C(=O)CC(c2ccccc2)Sc2ccccc21)Nc1cccc(Cl)c1 (stereo not given) | -13.9%
CCOCCn1ccc2c(OCC(=O)Nc3ccc(OC(F)(F)F)cc3)cccc2c1=O | -27%
CC(=O)c1cccc(NC(=O)CCS(=O)(=O)c2ccc(Br)s2)c1 | 5.96%
COc1ccc(OC)c(CN2CCN(Cc3cc(=O)oc4cc(O)ccc34)CC2)c1 | active: 33.7%
Cc1ccc(CCNC(=O)C2CCN(c3nnc(-n4cccc4CNc4ccc(C)cc4)s3)CC2)cc1 | 0.604%
CCN(C(=O)Cn1c(=O)oc2cc(Cl)ccc21)c1cccc(C(F)(F)F)c1 | -20.2%
Cc1ccc(-c2cnc(NCc3ccc(C(F)(F)F)cc3)n2C)cc1 | -27%
COc1ccc(/C=C/C(=O)Nc2nc3n(n2)C(c2ccccc2)C=C(c2ccccc2)N3)cc1 (stereo not given) | -7.07%
Cc1nc2scc(C)n2c(=O)c1S(=O)(=O)Nc1ccc(N2CCOCC2)cc1 | 15.4%
Cc1ccc(-n2ncc(C(=O)Nc3ccc4c(c3)OCO4)c2C2CCN(C(=O)OC(C)(C)C)CC2)cc1 | 11%
Cc1ccnc(NS(=O)(=O)c2cc(-c3cc(C)no3)ccc2C)c1 | 2.46%
CCc1ccc(N(CC)C(=O)Cn2c(=O)oc3ccccc32)cc1 | 3.9%
COc1ccc(NC(=O)C2CCCN(S(=O)(=O)c3ccc4c(c3)CCCC(=O)N4)C2)c(OC)c1 (stereo not given) | 1.51%
Cc1nn(S(=O)(=O)c2ccc(F)cc2)c(C)c1S(=O)(=O)N1CCC(C)CC1 | 3.74%
CCC(NC(=O)C1CCC1)c1ccc(C)cc1 (stereo not given) | active: 36.7%
COc1cccc2cc(C(=O)NCCc3c(C)[nH]c4ccc(Br)cc34)c(=O)oc12 | 11.4%
Cc1ccccc1NC(=O)c1c(NC(=O)C(F)(F)F)sc2c1CCCCC2 | -1.8%
Cc1cn(S(=O)(=O)c2ccc(F)c(Cl)c2)cn1 | -11.4%
COc1cc(NC(=O)c2nn(-c3ccc(F)cc3)c(=O)n(C)c2=O)cc(OC)c1OC | 19.3%

SMILES | inhibition
CCn1c(C(=O)N2CCC(C(=O)NCCCOC)CC2)cc2sccc21 | 8.87%
Cc1cc(C)c(/C=C/c2onc(C)c2S(=O)(=O)N2CCC(C(=O)Nc3ccc(Cl)cc3C)CC2)c(C)c1 | -17.6%
CC(C(O)c1ccc(O)cc1)N1CCC(Cc2ccccc2)CC1 (stereo not given) | active: 48.5% and active: 77.2%
O=C(COCc1cc(-c2cccs2)on1)NCc1cccc(Cl)c1 | -15.1%
Cc1ccccc1NC(=O)CSc1nc2ccccc2c2nc(CCn3c(C)nc4ccccc43)nn12 | 10.1%
COc1ccc(NCc2cc3ccc(OC)cc3n(CC(=O)Nc3cccc(OC)c3)c2=O)cc1 | 8.25%
CCOc1ccc(-c2nc(CNC(=O)Nc3ccccc3)c(C)o2)cc1 | 10.1%
COc1ccccc1N1CCN(C(=O)c2cc3c(=O)oc4ccc(C)cc4c3s2)CC1 | 8.33%
Cc1ccc(CNC(=O)c2cn(C)c3ccc(S(=O)(=O)N4CCOCC4)cc3c2=O)cc1 | 0.364%
CCC1CCc2nc3sc(C(=O)Nc4ccc(F)c(F)c4)c(N)c3cc2C1 (stereo not given) | -0.666%
CCOC(=O)c1c(C)c(C(=O)NCc2ccc(Cl)cc2)c(C)n1CC | 0.925%
CC(C)c1ccccc1Oc1c(C(F)(F)F)oc2c(CN3CCN(C)CC3)c(O)ccc2c1=O | -6.82%
Cn1c(-c2ccc(S(=O)(=O)N3CCCC3)cc2)csc1=Nc1ccc(Cl)c(Cl)c1 | 9.55%
CCOc1ccccc1Nc1sc(C(=O)c2ccc(Cl)cc2)c(N)c1C(=O)NCCc1ccccc1 | 10.9%
CCCc1nnc(NC(=O)Cc2coc3ccc(C)cc23)s1 | -0.986%
O=C(Cn1c(=O)n(CCc2ccccc2)c(=O)c2c3c(sc21)CCCC3)Nc1ccc(F)c(F)c1 | -18.5%
CCn1c(SCC(=O)Nc2nccs2)nnc1-c1ccco1 | active: 83%
CCN(CC)c1cc2c(cc1F)c(=O)c(S(=O)(=O)c1ccc(C)cc1)cn2Cc1ccc(F)cc1 | -6.01%
O=S(=O)(Nc1cccc(-c2ccc(N3CCOCC3)nn2)c1)c1ccccc1C(F)(F)F | -6.04%
CCOc1ccc(NC(=O)[C@H](Cc2ccccc2)N2Cc3ccccc3C2=O)cc1 | 3.19%
O=C(Cn1ncc2ccsc2c1=O)N1CCN(c2ccccc2)CC1 | 3.07%
O=C(Nc1nnc(-c2ccccc2F)s1)C1CCCO1 (stereo not given) | active: 39.7%
O=C(NCCc1ccc(Cl)cc1)c1nc(-c2cccc(F)c2)n2c1CCCCC2 | 23.8%
CCCN1CCN(c2ncnc3sc(C(=O)Nc4cccc(Cl)c4C)c(C)c23)CC1 | 7.33%

SMILES | inhibition
Cc1cc2n(n1)CCC(=O)N2Cc1ccc(C(=O)Nc2ccc(Br)c(C)c2)cc1 | 0.674%
COC(=O)c1c(NC(=O)COc2c(C)ccc(C)c2C)sc2c1CCC(C)C2 (stereo not given) | -15.3%
Cc1ccc(-n2nc(C(=O)Nc3cccc(C#N)c3)c3c4ccccc4n(C)c3c2=O)cc1 | 3.06%
CC1=C(C(=O)Nc2cccnc2)C(c2ccc(Cl)cc2)n2nc(SCc3ccccc3)nc2N1 (stereo not given) | 2.35%
Cc1ccc(NC(=O)CN2C(=O)c3ccccc3Sc3ccc(C(=O)N4CCCC4)cc32)cc1 | -9.01%
CCN(CC)CCNC(=O)c1[nH]c2ccccc2c1Sc1ccc(Cl)cc1 | 27%
O=C(Nc1cc(Cl)ccc1Cl)c1cc(S(=O)(=O)N2CCCc3ccccc32)ccc1F | 0.686%
COc1ccc2c(c1)CCC/C2=N\NC(=O)c1ccoc1C | active: 37.7%
CN(C(=O)c1ccc2c(c1)N(Cc1ccccc1F)C(=O)c1ccccc1S2(=O)=O)C1CCCCC1 | 12.4%
COc1ccc(NC(=O)C(NC(=O)/C=C\c2ccc3c(c2)OCO3)c2ccc(OC)cc2)cc1 (stereo not given) | -1.44%
O=C(CC1N=C2c3ccccc3N=C(SCc3ccccc3Cl)N2C1=O)NCc1cccs1 (stereo not given) | -4.85%
COc1ccc(NC(=O)C(=O)NCC(c2cccnc2)N2CCc3ccccc3C2)cc1 (stereo not given) | 0.494%
CCOc1ccc(NC(=O)Cc2ccc(-n3c(C)nc4cccnc43)cc2)cc1 | 4.57%
CCOC(=O)C1CCCN(Cc2cn3c(-c4ccc(Br)cc4)nnc3s2)C1 (stereo not given) | -7.41%
CC(=O)N1CCC(N(Cc2ccco2)C(=O)Nc2ccc(Br)cc2F)CC1 | 5.78%
Cc1cccc(OCC(=O)N(Cc2ccc(C(C)C)cc2)Cc2ccco2)c1C | -18%
O=C(Nc1nnc(S(=O)(=O)N2CCCC2)s1)c1ccccc1F | -14.5%
CCN(C(=O)c1nn(-c2ccc(C)cc2)c(=O)c2c1c1ccccc1n2C)c1ccc(F)cc1 | -16.6%
CC(C)COc1ccc(-c2nonc2NC(=O)c2ccc(F)cc2)cc1 | -6.4%
Cc1ccc(N2CC(NC(=O)c3ccco3)CC2=O)cc1C (stereo not given) | -0.526%
O=C(Cn1ncc2c([nH]c3ccccc32)c1=O)NCc1cccc(Cl)c1 | 7.09%
CCOC(=O)c1cnc2c(C)cc(Cl)cc2c1NCCc1ccc(OC)c(OC)c1 | -5.35%
CCOC(=O)c1cc(-c2ccc(F)cc2)n(CCC(=O)NCc2ccccc2OC)c1C | 7.94%
